Some of the results follow.

B1: chrX:118797523:118797524:-_ENSG00000125354_ENST00000360156|hu_hu|FALSE|FALSE (ssRNA)
RNA: GGGAGUUCUACAGUCCGACGAUCCACGAUAGGCUUGUAGCUGUCCUCUUUGUUGAUCUGGUCCCCAAAGCCAACUGUGCUAACGAUCGUGAGCUUUAGCCUCACGUUGCUCUCUUGGAGGUCAUAGGUAUUAGACUGGAGCUGCAACAGAGGAUUGAGCAUCA
B2: chr5:128440902:128440903:+_ENSG00000066583_ENST00000173527|hu_mus|hu_hu_hu_mus_True|48_88 (ssRNA)
RNA: GGGAGUUCUACAGUCCGACGAUCUUGAACGGUGCUGCCAAGUCCUUUAGGGUAUUGUUCCGUUAUGAUAACUGGAAUCCCUAAGAUCCGGGCCCCUUGCAACAGUCUCUGUCCCACACUAAUGAUGUCCCCAAAGUAUUUGAUCAACAGAGGAUUGAGCAUCA
B3: chr11:118888195:118888196:-_ENSG00000118181_ENST00000527673|hu_hu|FALSE|FALSE (ssRNA)
RNA: GGGAGUUCUACAGUCCGACGAUCUUUAUAGUUGGGAACUUCCUUACAGAGUUUAUCAUAGGUAGCUUUGUCAAACAAGACUAAGUUAUUGAGCUUGUCCCGAACUUUGCCUUUGGACCACUUCUUCUUUUUGGCCUUGCCCCCCAACAGAGGAUUGAGCAUCA
B4: chr12:48362563:48362564:+_ENSG00000134291_ENST00000256686|hu_hu|hu_hu_hu_mus_False|28_28 (ssRNA)
RNA: GGGAGUUCUACAGUCCGACGAUCUCCGUCAAGCCCUUCGAUAGACCCUUGCGGGGGAAACUGUAAUCACUUUGUAUGGGGAAGGAAAAGAAACGCCAAAAACUUUCUUUCUUUCUUGGGUGGGGUGAGGCGGGAGGGGGAGGUCAACAGAGGAUUGAGCAUCA
B5: chr2:100011259:100011260:+_ENSG00000158417_ENST00000289371|hu_mus|FALSE|FALSE (ssRNA)
RNA: GGGAGUUCUACAGUCCGACGAUCGUAGUCCUGUCUGUAUUUUGUAAAGGCAUCAAAUAAGUGAUAAAUAAUUUCUGCACUAAAGAUUCUAACUCCCAAACUAUCAGCCAUCUCUUGUGCGUCCCGUUCAAUUCUUACAUCAAACAACAGAGGAUUGAGCAUCA
B6: chr9:100896081:100896082:-_ENSMUSG00000032527_ENSMUST00000035116|mus_hu|FALSE|FALSE (ssRNA)
RNA: GGGAGUUCUACAGUCCGACGAUCGUAGUUGAAGAAAUCCCGGAGAUUACACAAGGCAUCAACAUCAUUUUCAAAAGCUCUGUGGGCCACACCUGACAUGGUGGUGUGGGUCUUGGCACCACCGAGCUCCUCCUGGGUAACAUCCAACAGAGGAUUGAGCAUCA
B7: chr17:56167648:56167649:+_ENSG00000264364_ENST00000579991|hu_hu|motif|central (ssRNA)
RNA: GGGAGUUCUACAGUCCGACGAUCGAUAUCCCCAGAGGCUUUUAGCAUAAAAGCCCACUUAGAACUAACUGUGCCCCCGGCCGGCCCAUACACCCUAGAGAUUCCACACUGUCCUGCCCCCUCCCUCCCUUCUACCCCAAACCCCAACAGAGGAUUGAGCAUCA
B8: chr13:100193941:100193942:-_ENSMUSG00000052727_ENSMUST00000064762|mus_hu|motif|central (ssRNA)
RNA: GGGAGUUCUACAGUCCGACGAUCAUUUUCUCUAAACUCUACAUGAACCGUAGGAGUUGAGAAUUCAUUUGUUUUCAAUGUACGGUUUCUUUUAUUUUUUUUUUCCAGAAAAGAAAAUCCCAAAGCAAAUUUGUGCUAGGGUUCCAACAGAGGAUUGAGCAUCA
B9: chr10:24872911:24872912:-_ENSG00000107863_ENST00000396432|hu_hu|motif|central (ssRNA)
RNA: GGGAGUUCUACAGUCCGACGAUCUAAUGAUAUCUGUUACCAAUAAAACGCAUUCGUUUAUUCAAUGUAAGUAAGUUAUCGGAUUUUAACAAUAUGGCACCCUAAAAACCAACUGUAUUUUUAUGAUGAGGCACUUUUGUUAGUCAACAGAGGAUUGAGCAUCA
B10: chr3:47719781:47719782:-_ENSG00000173473_ENST00000254480|hu_hu|FALSE|FALSE (ssRNA)
RNA: GGGAGUUCUACAGUCCGACGAUCAUGGACCCUCAUCACAGCACACACAUCUCCAGUCAAGUUCCUCCGACAAGCAGUGCUAGUUAAAUACUCUUGGGGGUUUAGACGAUACGUGUCAAUCAUAAAAUUUCGAUAUGCCAAGUACAACAGAGGAUUGAGCAUCA
B11: chr4:57314706:57314707:+_ENSG00000128050_ENST00000264221|hu_mus|motif|central (ssRNA)
RNA: GGGAGUUCUACAGUCCGACGAUCCAGAAUUUCAAAAAUAGCUUGUGUGGCAUGACUCAUGAUGUCCACUUCAGUCUGCCCGGUAACAAGGCCAGCAAAACAGAAUUUUGCAGCAAUGAGUUGCUCCUCAGACCACUGUGGAUCCAACAGAGGAUUGAGCAUCA
B12: chr14:89307221:89307222:+_ENSG00000165533_ENST00000346301|hu_mus|hu_hu_hu_mus_False|78_98 (ssRNA)
RNA: GGGAGUUCUACAGUCCGACGAUCUCCUGUUUGGUUAGUUCCAGGGAGCUUCAAAGACGUUCCAGGGCGUGGGACCUGAGCAAUAGCAUUUUCAUCCAGGAUCAUUUCAGCAAUUCCUUCCUGGUCCACAUCAAUUUCAUCUAUCAACAGAGGAUUGAGCAUCA
B13: 35549997_35550542_3344_CDS_ENSMUSG00000041408_ENSMUST00000048263|mouse|control|control (ssRNA)
RNA: GGGAGUUCUACAGUCCGACGAUCAGGUAGGUACUUUGGAACCUGAAGAACACAGUUCAUCGCUGUGCCUAUGAGUCCUUCUUGUUCUCCUGUCUUUGUGCUGCCCCACUCAUUAUCAUUAGUUAAAUUGAGCAAUACUCCAAUCAACAGAGGAUUGAGCAUCA
B14: chr7:883111:883112:+_ENSG00000164828_ENST00000456758|hu_hu|FALSE|FALSE (ssRNA)
RNA: GGGAGUUCUACAGUCCGACGAUCAGACGCACCGCAUUUUUGAUUCCUGUCCCUAGAAUAAACUCUCGACACGGGCCCGGGGGCCGCGGGGUGCGCCGUGAGCACGUCCUUGCGCUCGGACAGCAUGCUGCAGUUGCUGCAGGACAACAGAGGAUUGAGCAUCA

The assay concerns the target T1, UNK ZnF1-3 (human, UniProt Q9C0B0 31-174).
T1 sequence: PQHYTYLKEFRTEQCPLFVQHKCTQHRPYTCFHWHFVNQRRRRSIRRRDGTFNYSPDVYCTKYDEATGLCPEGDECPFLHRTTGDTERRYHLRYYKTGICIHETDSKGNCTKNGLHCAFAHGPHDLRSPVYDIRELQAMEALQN
Put plainly: nsRBNS (natural sequence RNA bind-n-seq); RBNS binding buffer (assumed for nsRBNS): 25 mM Tris pH 7.5, 150 mM KCl, 3 mM MgCl2, 0.01% Triton X-100, 500 ug/ml BSA, 20 U/ml SUPERase-In, 4 C; UNK is unkempt and MSI1 is Musashi-1; names of the RNAs are library labels; protein concentration not given here; high values mean tight binding.
In the case of B1, the binding signal worked out at 0.737 enrichment R.
The figure for B2 is 0.704 enrichment R.
B3 showed a binding signal of 0.642 enrichment R.
The figure for B4 is 1.17 enrichment R; for B5 it is 2.43 enrichment R; for B6 it is 0.962 enrichment R.
Molecule B7 displayed a binding signal of 1.4 enrichment R.
The same measure for B8: 0.605 enrichment R.
The figure for B9 is 0.604 enrichment R; for B10 it is 1.89 enrichment R; for B11 it is 0.96 enrichment R.
The same measure for B12: 0.919 enrichment R; for B13: 0.816 enrichment R.
In turn, B14 returned a binding signal of 0.973 enrichment R.

These data come from publication PMC12136788.
